Results as given in article PMC9820451, “Coprinopsis cinerea Galectin CGL1 Induces Apoptosis and Inhibits Tumor Growth in Colorectal Cancer Cells” (International Journal of Molecular Sciences, 2022).

Molecular target: the molecule itself
Assay: dynamic light scattering; dilutions of the purified galectin filtered through 0.22 µm membranes, Zetasizer Nano-S; molecular weight estimated from the hydrodynamic radius; self-association, tetramer

B1: Coprinopsis cinerea galectin CGL2 (natural protein)
chain: MLYHLFVNNQVKLQNDFKPESVAAIRSSAFNSKGGTTVFNFLSAGENILLHISIRPGENVIVFNSRLKNGAWGPEERIPYAEKFRPPNPSITVIDHGDRFQIRFDYGTSIYYNKRIKENAAAIAYNAENSLFSSPVTVDVHGLLPPLPPA
notes: galectin CGL2 of Coprinopsis cinerea, full-length cgl2 amplified from genomic DNA of strain Okayama 7 (#130; ATCC MYA-4618), cloned into pET22b(+); No removal of the tag is told
stoichiometry N: 4
